# The other results are listed elsewhere or left out. Antibody binding of pooled human sera (four to six donors per pool; dilution not stated) to peptides of the Trypanosoma cruzi antigen TSSA on microarrays. Quantile-normalised fluorescence in arbitrary units, mean of duplicate arrays; higher = more binding. No active / inactive call. The uninfected pools are read here as the healthy donors of the same country. The strongest signals lie near the top of the scale (about 60,000).
# How the values were obtained:
# Assay in all cases: antibody binding signal (normalised fluorescence) (arbitrary fluorescence units); higher = stronger serum antibody binding to peptide
# [1] = tested on: pooled sera of chronic Chagas disease patients, Argentina
# Procedure: (§1)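 Microarray of 15-residue peptides over residues 30-55 of Trypanosoma cruzi TSSAII, each with 1 to 10 substitutions at naturally variable positions, probed with one serum pool per country.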
# [2] = tested on: pooled sera of chronic Chagas disease patients, Bolivia
# Procedure: as §1
# [3] = tested on: pooled sera of chronic Chagas disease patients, Brazil
# Procedure: as §1
# [4] = tested on: pooled sera of chronic Chagas disease patients, Colombia
# Procedure: as §1
# [5] = tested on: pooled sera of chronic Chagas disease patients, Mexico
# Procedure: as §1
# [6] = tested on: pooled sera of chronic Chagas disease patients, USA
# Procedure: as §1
# [7] = tested on: pooled sera of uninfected people, Argentina
# Procedure: as §1
# [8] = tested on: pooled sera of uninfected people, Bolivia
# Procedure: as §1
# [9] = tested on: pooled sera of uninfected people, Brazil
# Procedure: as §1
# [10] = tested on: pooled sera of uninfected people, Mexico
# Procedure: as §1
# [11] = tested on: pooled sera of uninfected people, USA
# Procedure: as §1
Sequence,antibody binding signal [1],antibody binding signal [2],antibody binding signal [3],antibody binding signal [4],antibody binding signal [5],antibody binding signal [6],antibody binding signal [7],antibody binding signal [8],antibody binding signal [9],antibody binding signal [10],antibody binding signal [11]
GTDNKTATGGTPSPS,437,1120,27600,726,710,756,245,634,2090,228,184
KTAAGEAPSPPGASS,457,380,1890,335,1210,4540,241,187,179,94.8,181
TPPSGTENKTATGGA,54100,46700,52300,311,5320,20200,3350,555,372,463,634
KKAAAGETPSPPGAS,203,260,450,198,131,1050,263,316,93.3,135,325
KDKKAAAGGTPSPSG,231,192,203,1670,287,1140,91.6,102,738,77.3,77.4
GKDKKTATGGTPSQS,484,216,287,1270,774,1480,279,96.8,106,122,108
SGTENKTATGETPSP,17000,20100,20200,308,287,10500,499,347,164,249,777
PPSGTENKAATGEAP,44400,40300,46000,275,3370,29300,1740,396,261,214,449
KEKKAAAGGTPSQSG,174,204,152,1560,166,1340,117,83.7,575,89.2,97
GTDKKPAAGEAPSPP,383,792,19000,4950,561,15000,110,227,139,515,75.2
KDKKAAAGGAPSQPG,221,188,390,1490,252,198,113,86.8,109,72.3,132
PPSGTEKKTAAGGTP,32900,4420,12300,14200,3250,3890,857,375,1110,612,482
DKKPATGGAPSQSGA,1180,589,906,1650,1050,1190,410,860,132,126,148
TISTPPSGTENKAAA,50200,51300,55600,437,4890,30000,6550,1170,514,293,1760
SGTEKKTAAGEAPSP,423,581,1340,661,611,7990,152,531,154,141,142
PSGTEKKAAAGGAPS,12500,557,3520,10700,7220,5200,673,319,346,257,383
PSGTDKKTAAGGTPS,1870,333,1910,14700,3690,2770,171,466,590,513,276
PPSGTENKTAAGETP,40700,39300,44200,269,2630,11300,1490,469,259,368,449
GTDKKAAAGETPSPP,739,442,2330,4420,1000,2000,149,356,125,397,475
SGTENKAATGETPSP,25400,23600,28000,332,225,16000,453,399,147,200,1170
NKTATGETPSPPGAS,361,1230,5250,292,294,5870,613,1220,366,197,2020
TEKKAAAGGTPSPSG,813,207,190,7480,725,2720,111,111,2490,212,713
KEKKAAAGEAPSPSG,130,182,320,158,133,7280,168,79.3,93.6,69.4,87.9
KENKPAAGEAPSQSG,474,8400,30000,302,504,15800,179,289,127,155,111
GKEKKPAAGGAPSPP,1620,312,236,2190,763,1100,124,103,154,98.9,267
SGTENKAATGGTPSP,42600,13900,18700,745,767,5180,533,378,194,164,108
GKDKKAATGEAPSPP,14000,17900,19900,1690,1750,18200,245,110,103,95.7,107

Sequence,antibody binding signal [1],antibody binding signal [2],antibody binding signal [3],antibody binding signal [4],antibody binding signal [5],antibody binding signal [6],antibody binding signal [7],antibody binding signal [8],antibody binding signal [9],antibody binding signal [10],antibody binding signal [11]
KAATGETPSQSGASS,4970,5720,23100,182,135,9460,308,321,206,313,191
KAAAGGAPSPPGASS,239,235,251,4500,370,777,197,144,103,90.9,163
GTENKAAAGETPSQP,40900,5060,37800,4300,6280,4510,119,377,159,204,112
GTENKPATGETPSPS,44800,35100,35400,1130,2540,29000,488,1170,361,1760,2140
SGKEKKPAAGGAPSQ,8400,2150,5230,6490,7620,6450,206,129,220,97.3,235
KTAAGETPSPPGASS,289,279,524,196,478,965,207,282,208,243,370
KAATGETPSPPGASS,1640,930,16700,182,152,7610,202,253,279,103,513
ENKPATGEAPSQSGA,50800,47600,49900,325,638,48700,1120,848,350,226,208
PSGTEKKTAAGGAPS,6380,1620,2950,10600,5420,4110,428,282,219,270,623
SGTENKPAAGGAPSQ,50100,19200,34400,1690,1710,8430,644,1830,333,356,158
KDNKPATGGAPSQSG,445,1320,2620,259,226,1400,337,682,353,147,147
TPPSGTEKKPAAGET,35700,34800,42800,473,25300,6920,1050,725,1120,314,362
ENKAAAGETPSQSGA,244,737,16200,238,155,2690,84,222,154,152,186
PPSGTEKKAAAGGTP,29300,1380,15300,6290,4160,4240,983,428,2100,148,177
GKEKKAATGGTPSQP,1750,246,377,1920,2650,2250,252,108,160,273,94.8
GTDNKPAAGGAPSQS,2200,474,43800,2300,344,621,186,636,576,578,163
NKPATGGTPSQPGAS,514,835,19300,519,386,713,684,1390,895,662,1390
SSTPPSGTDKKTATG,39300,15700,36300,6790,46000,6850,601,144,183,1220,237
GKEKKTATGGAPSQS,3100,345,1900,3120,4210,3870,213,110,97.9,117,83.9
NKAAAGGTPSQPGAS,316,256,4140,4270,370,1400,789,936,1190,894,1280
DKKTAAGGAPSPSGA,587,749,191,7330,869,685,244,89.2,142,300,135
DNKTATGEAPSPPGA,11400,28300,17500,247,244,18800,160,134,214,148,113
TDKKPATGGAPSQSG,1470,655,1810,2090,1400,1420,480,1310,161,168,171
DKKTATGETPSQSGA,886,821,3830,282,391,6390,267,203,237,513,176
PPSGTDNKAATGGTP,26000,36400,47000,923,1120,4930,582,705,2200,357,289
ENKPATGGTPSPSGA,708,3950,2990,352,756,598,391,710,492,215,282
GKENKPATGEAPSQS,47700,26600,51900,16800,16600,46600,1430,851,326,360,149

# Reference: the supplement of paper PMC10441789
